In PubChem BioAssay AID1745853 (National Center for Advancing Translational Sciences (NCATS), 2022) one finds activity change, negative = inhibition data, which are given here for 28 compounds.

Each structure is given as a SMILES string. Some of the results follow. Further columns of the screen follow, without active or inactive calls.

What all share (test): Primary Screen for Target Class Profiling of Small Molecule Inhibitors of Methyltransferases
Test [1] has as its target Guanidinoacetate N-methyltransferase (Homo sapiens) (UniProt Q14353). Particulars: purified enzyme, MTase-Glo SAH luminescence; measured here: GAMT inhibition; at 40 µM; stronger effect = lower value. In short, it runs like this:
(§1)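 Each enzyme was reacted with SAM and its substrate, with compounds tested once at 40 uM; SAH formed was read by MTase-Glo luminescence.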

In test [2] the target is Nicotinamide N-methyltransferase (Homo sapiens) (UniProt P40261). Particulars: purified enzyme, MTase-Glo SAH luminescence; measured here: NNMT inhibition; at 40 µM; stronger effect = lower value. In short, it runs like this: as §1
Test [3] addresses Phenylethanolamine N-methyltransferase (Homo sapiens) (UniProt P11086). Conditions: purified enzyme, MTase-Glo SAH luminescence; measured here: PNMT inhibition; at 40 µM; stronger effect = lower value. The essentials:
as §1

The target of test [4] is Glycine N-methyltransferase (Homo sapiens) (UniProt Q14749). Particulars: purified enzyme, MTase-Glo SAH luminescence; measured here: GNMT inhibition; at 40 µM; stronger effect = lower value. In short, it runs like this: as §1
Test [5] has as its target Histamine N-methyltransferase (Homo sapiens) (UniProt P50135). Particulars: purified enzyme, MTase-Glo SAH luminescence; measured here: HNMT inhibition; at 40 µM; stronger effect = lower value. In short, it runs like this:
as §1
% is scaled to controls: 0 for no effect and ±100 for the full control effect.

Consider `Clc1ccc2ncc(-c3cccc(NC4CCNCC4)n3)n2c1`, for which the activity change, negative = inhibition in test [1] is -3.71%; in test [2], -21.2%; in test [3] it was -5.99%.

Consider `CC(=O)N1CC(CO)C2(CCN(C(=O)c3nccc4ccccc34)CC2)C1` (centres undefined), for which the activity change, negative = inhibition in test [4] was 1.62%; in test [1], -1.95%; in test [5], 1.46%; in test [2], 1.98%; in test [3], 1.29%.

With `COc1ccc(CCC(=O)O)c(O[C@@H]2O[C@H](CO)[C@@H](O)[C@H](O)[C@H]2O)c1`, the activity change, negative = inhibition in test [4] was 1.64%; in test [1], 6.06%; in test [5], 6.22%; in test [2], -8.7%; in test [3], 0.264%.

As to `Cc1ccc(C)c(C(=O)Cn2nc3n(CC(C)C)c(=O)c4ccc(C(=O)NC(C)C)cc4n3c2=O)c1`, the activity change, negative = inhibition in test [4] stood at 6.11%; in test [1] it was 5.7%; in test [5] it was 3.1%; in test [2], 6.21%; in test [3] it was 3.94%.

On to `Cc1cc(C)c(NC(=O)CN(C)S(=O)(=O)c2ccc3[nH]c4c(c3c2)CCCC4)c(C)c1`, for which the activity change, negative = inhibition came out at 0.377% in test [4]; 0% in test [1]; 0.565% in test [5]; 1.13% in test [2]; 1.66% in test [3].

As to `CC(=O)Nc1c2n(c3ccc(F)cc13)CC(C)(C(=O)NC1CCCC1)N(Cc1ccccc1F)C2=O` (centres undefined), the activity change, negative = inhibition in test [4] was -3.4%; in test [1], 0.921%; in test [5], -5.34%; in test [2], -3.76%; in test [3] it was -7.53%.

Consider `CC(C)OCCCNC(=O)c1ccc2c(=O)nc3c(-c4cccc(F)c4)n[nH]n3c2c1`, for which the activity change, negative = inhibition was -0.396% in test [4]; 4.16% in test [1]; 7.25% in test [5]; 3.89% in test [2]; 1.15% in test [3].

For the compound `Cc1cccc(N2CCN(C(=O)c3cc(S(=O)(=O)N(C)C)ccc3N3CCCC3)CC2)c1C`, the activity change, negative = inhibition is -2.87% in test [4]; -4.78% in test [1]; 11.1% in test [5]; -15.6% in test [2]; -0.68% in test [3].

As for `Cc1cc(C)n(CCCN(C)C(=O)C2C3C(=O)N(CCC(C)C)C[C@@]34C=C[C@@H]2O4)n1` (some centres undefined), the activity change, negative = inhibition was determined as 0.957% in test [4]; 0.056% in test [1]; 2.67% in test [5]; 2.7% in test [2]; 5.72% in test [3].

Consider `CN1C(=O)c2cc(C(=O)N3CCN(Cc4ccccc4)CC3)nn2CC1(C)C(=O)NCc1ccc(F)cc1` (centres undefined), for which the activity change, negative = inhibition in test [4] was 2.81%; in test [1] it was 0%; in test [5], -4.7%; in test [2], 2.47%; in test [3] it was 3.55%.

Regarding `COCC(=O)Nc1ccc(-c2noc([C@@H]3CCCN3Cc3ncc[nH]3)n2)cn1`, the activity change, negative = inhibition is -9.07% in test [4]; -6.53% in test [1]; -5.89% in test [5]; -5.98% in test [2]; -7.07% in test [3].

`Fc1ccc(CN2CCn3c(nnc3-c3ccncc3)C2)cc1`: the activity change, negative = inhibition in test [4] was -5.86%; in test [1], -2.65%; in test [5], -2.47%; in test [2], -6.71%; in test [3], -2.66%.

For `CN(C)C[C@@H]1CN(c2ccncn2)C[C@H]1NC(=O)c1nccc2ccccc12`, the activity change, negative = inhibition in test [4] is -4.48%; in test [1], -1.52%; in test [5], -0.407%; in test [2], -5.3%; in test [3] it was -2.39%.

Turning to `COc1ccc(OC)c(CNC(=O)c2cc3n(n2)CC(C)(C(=O)NC2CCCC2)N(C)C3=O)c1` (centres undefined), the activity change, negative = inhibition in test [4] amounted to 1.95%; in test [1] it was 2.99%; in test [5], 8.62%; in test [2], 8.39%; in test [3] it was 3.09%.

In the case of `N#Cc1ccc(O[C@@H]2CCOC[C@H]2NC(=O)CN2CCOC2=O)cc1`, the activity change, negative = inhibition was -0.658% in test [4]; -5.6% in test [1]; -0.385% in test [5]; -5% in test [2]; -0.595% in test [3].

`CC1OC(O[C@@H]2[C@@H](O)[C@H](OC(=O)[C@]34CCC(C)(C)C[C@H]3C3=CCC5[C@@]6(C)CC[C@H](O[C@@H]7O[C@H](C(=O)O)[C@@H](O)[C@H](O[C@@H]8OC[C@@H](O)[C@H](O)[C@H]8O)[C@H]7O[C@@H]7O[C@H](CO)[C@H](O)[C@H](O)[C@H]7O)[C@@](C)(C=O)C6CC[C@@]5(C)[C@]3(C)C[C@H]4O)O[C@H](C)[C@@H]2OC2OC(C)C(OC3OCC(O)C(O)C3O)C(O)C2O)C(O)C(O)C1O` (some centres undefined): the activity change, negative = inhibition in test [4] is -0.933%; in test [1], -0.016%; in test [5], 3.38%; in test [2], -8.43%; in test [3], 2.97%.

Consider `CCOC(=O)CNC(=O)N1Cc2c(sc3c2CCCC3)-n2cccc2C1c1ccc(SC)cc1` (centres undefined), for which the activity change, negative = inhibition in test [4] is 0.155%; in test [1], 0.906%; in test [5], 7.06%; in test [2], -1.61%; in test [3], 6.6%.

For `Cc1cc2c(cc3n2CC(C)(C(=O)NC2CCCCCCC2)N(CCCN2CCOCC2)C3=O)o1` (centres undefined), the activity change, negative = inhibition is 1.31% in test [4]; 1.61% in test [1]; 5.38% in test [5]; -4.33% in test [2]; 2.55% in test [3].

In the case of `C[C@@H](O)[C@H]1C(=O)N2C(C(=O)O)=C(S[C@@H]3CN[C@H](CNS(N)(=O)=O)C3)[C@H](C)[C@H]12`, the activity change, negative = inhibition in test [1] is -10.3%; in test [2] it was -20.8%; in test [3], -2.62%.

Consider `COc1cccc(-n2c(=O)[nH]c3cc(Cl)n(-c4ccc(-c5cccc(OC)c5O)cc4)c3c2=O)c1`, for which the activity change, negative = inhibition in test [1] is -9.02%; in test [2], -35.8%; in test [3], -12.1%.

As for `CC12CCC(OC3OC(CO)C(O)C(OC4OC(CO)C(O)C(O)C4O)C3O)CC1=CCC1C2CCC2(C)/C(=C3/COC(=O)C3)CCC12O` (centres undefined), the activity change, negative = inhibition in test [4] is 2.56%; in test [1] it was 6.46%; in test [5], 3.12%; in test [2] it was -5.62%; in test [3], 4%.

On to `Cc1cc(C)cc(NC(=O)Cn2c(=O)oc3cc(S(=O)(=O)N4CCCC4)ccc32)c1`, for which the activity change, negative = inhibition is -11.5% in test [4]; -1.18% in test [1]; -5% in test [5]; -3.41% in test [2]; -23.7% in test [3].

As for `CCCN1C(=O)c2cc3sc(CC)cc3n2CC1(C)C(=O)NC1CCCCC1` (centres undefined), the activity change, negative = inhibition in test [4] is -5.7%; in test [1], 0.268%; in test [5] it was -0.459%; in test [2] it was 3.1%; in test [3], -2.93%.

As to `Cc1ccc(Cn2nc3n(CCC(C)C)c(=O)c4ccc(C(=O)NC(C)C)cc4n3c2=O)cc1`, the activity change, negative = inhibition is -1.12% in test [4]; 0.223% in test [1]; -2.9% in test [5]; -2.18% in test [2]; -1.24% in test [3].

For `Cc1csc2c(N[C@@H](C)CN3CCN(S(=O)(=O)c4ccc(Cl)c(Cl)c4)CC3)ncnc12`, the activity change, negative = inhibition in test [4] was -8.98%; in test [1], 1.3%; in test [5], 9.88%; in test [2] it was -28.5%; in test [3], -4.37%.

`CC(C)CNC(=O)c1ccc2c(=O)n(CC(C)C)c3nn(CC(N)=O)c(=O)n3c2c1`: the activity change, negative = inhibition in test [4] amounted to 6.53%; in test [1], 5.37%; in test [5] it was 11.6%; in test [2], 2.3%; in test [3], 4.83%.

As for `CCC(C)NC(=O)c1ccc2c(=O)n(Cc3ccccc3)c3nn(CC(=O)NC(C)(C)C)c(=O)n3c2c1` (centres undefined), the activity change, negative = inhibition in test [4] was -0.053%; in test [1], 4.05%; in test [5], 3.73%; in test [2] it was 1.76%; in test [3], -4.67%.

As for `Cc1ccc([S+](=O)([O-])N2CCCCC23Cc2ccccc2NC3=O)cc1` (centres undefined), the activity change, negative = inhibition in test [4] is -7.19%; in test [1], -7.18%; in test [5], -3.01%; in test [2], -12.1%; in test [3] it was -7.7%.
